The campaign covered roughly 45,000 compounds. About 200 (0.44%) were called active. About 7% were inconclusive and are not listed. Calls come from the whole dose curve; as a rule, active = well fitted activation curve with a large enough effect; inconclusive = small, poorly fitted or top-dose-only effect; inactive = no such curve, though single readings can be large or run the other way. This is one part of the list.
Assay: qHTS of TDP-43 Inhibitors: NCGC Sytravon Library Screen; note: 0% is about no effect; nearly all actives have a fitted effect of over 55% in size
Details: yeast TDP-43 toxicity rescue, BacTiter-Glo growth, 24 h; series mostly up to 46.1 µM; growth rescue (activation): at the top concentration
How it was run: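 TDP-43-expressing yeast, pregrown in raffinose, seeded at OD600 0.02 in galactose medium with compound for 24 hr at 30 deg C. Growth read by BacTiter-Glo luminescence, so rescue of toxicity appears as activation.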

| Compound | growth rescue (activation) |
| --- | --- |
| CC(C)(C)c1ccc(C(=O)NCC(=O)N2CCNC(=O)C2)cc1 | inactive: -15.8% |
| O=c1cc(Cl)c2ccccc2n1-c1ccccc1 | inactive: 17.3% |
| COCC(C)NC(=O)c1cccc([N+](=O)[O-])c1 (centres undefined) | inactive: 6.28% |
| N#Cc1c2n(c(=S)n(-c3ccc(F)cc3)c1=O)CCCCC2 | inactive: -11.5% |
| O=C1NC2=C(C(=O)CCC2)C(c2ccc(OC(F)F)cc2)N1 (centres undefined) | inactive: -24% |
| CCC(=O)OCC(=O)Nc1ccc([N+](=O)[O-])cc1OC | inactive: 9.59% |
| CC(=O)Nc1cc(-c2ccc(C(=O)N3CCOCC3)cc2)cn2c(-c3ccc(C(C)=O)cc3)cnc12 | inactive: 4.63% |
| CCOC(=O)C1(CC2CC2)CCN(Cc2cnc(-c3ccc(OC)cc3)nc2)CC1 | inactive: 8.72% |
| NNC(=O)CCC(=O)Nc1ccccc1 | inactive: -7.87% |
| COc1cccc(/C=N/NC(=O)C[n+]2ccccc2)c1O | inactive: 9.03% |
| CCCN(CCC)CCN1C(=O)C2C(C(=O)Nc3cccc(SC)c3)C3C=CC2(O3)C1C(=O)NC1CCCCC1 (centres undefined) | inactive: 7.21% |
| Brc1ccc(-c2cnco2)cc1 | inactive: 1% |
| COc1ccc(CCN2CN(S(=O)(=O)c3ccc(C)cc3)c3nc4ccccc4nc32)cc1OC | inactive: 14.4% |
| Cn1cccc1CC(=O)N/N=C/C=C/c1ccccc1 | inactive: 13.7% |
| Cc1ccccc1NS(=O)(=O)c1ccc(OCC(=O)NCC2CCCO2)cc1 (centres undefined) | inactive: -18.6% |
| CCCS(=O)(=O)N1CCC(C(=O)NCCc2ccc(C)cc2)CC1 | inactive: 30.5% |
| CCOc1ccccc1Oc1coc2cc(OCC(=O)O)ccc2c1=O | inactive: 4.83% |
| O=C(O)c1ccc(N/N=C/c2cc3c(cc2[N+](=O)[O-])OCO3)cc1 | inactive: -3.47% |
| CCCn1nc(C(=O)Nc2ccc(S(=O)(=O)Nc3nccs3)cc2)c2ccccc2c1=O | inactive: -14.6% |
| CCOc1ccc(S(=O)(=O)N(C(=O)c2ccco2)c2cc3sc(=O)oc3c3ccccc23)cc1 | inactive: 17.6% |
| COc1ccc(NC(=O)Nc2nc(C(N)CC(C)C)cs2)cc1 (centres undefined) | inactive: 7.28% |
| CCSc1nnc([C@@H](NC(=O)OC(C)(C)C)C(C)C)o1 | inactive: 3.01% |
| O=C(Nc1cccc(NC(=O)c2cccs2)c1)c1ccc(F)cc1 | inactive: 3.77% |

| Compound | growth rescue (activation) |
| --- | --- |
| CCn1cc(CN2N=C(C)CC2c2ccccc2)c(C)n1 (centres undefined) | inactive: -4.68% |
| COc1ccc(NC(=S)N(Cc2cccc(Br)c2)CC2CCC(C(=O)O)CC2)cc1 (centres undefined) | inactive: 16.4% |
| COc1ccc(C(=O)Nc2ccc(Cl)c(S(=O)(=O)N3CCOCC3)c2)cc1 | inactive: 27.2% |
| COc1ccc(CCNC(=O)Cn2c(=O)cnc3ccccc32)cc1 | inactive: 17.3% |
| CC(=O)c1cccc(NC(=O)CSc2nnnn2C2CCCC2)c1 | inactive: -12% |
| C=CCOc1ccc(C(=O)Nc2ccc(OCC)cc2)cc1 | inactive: 17.2% |
| O=C1NCCCC1C(=O)N/N=C/c1cc([N+](=O)[O-])ccc1O (centres undefined) | inactive: 23.5% |
| Cc1cc(NC(=O)COc2ccc(Cl)cc2Cl)n(-c2ccccc2)n1 | inactive: 20% |
| CC(=O)c1cccc(-c2ccnc3c2CC(C(=O)Nc2ccc(Cl)cc2)O3)c1 (centres undefined) | inactive: -3.81% |
| CCOC1=NN(c2ccc(Cl)cc2)C(=O)/C1=C\N(C)C | inactive: 4.04% |
| COc1ccc(/C(C)=N/Nc2nc3ccccc3nc2C)cc1 | inactive: -15.2% |
| CC(=O)NC(Cc1ccccc1)C(=O)OCC(=O)c1ccc(F)cc1 (centres undefined) | inactive: 2.05% |
| CCOc1ccc(S(=O)(=O)Nc2cccc(C)c2)c2cccnc12 | inactive: -7.82% |
| O=C(NCCCNC(=O)c1cnccn1)c1ccc(Cl)cc1 | inactive: -3.81% |
| CCCc1cc(=O)[nH]c(SCC(=O)Nc2cccc3ccccc23)n1 | inactive: -6.19% |
| CCOc1cc(NC(=S)NCCCN2CCOCC2)c(OCC)cc1NC(=O)c1ccco1 | inactive: 5.46% |
| COc1ccc(NC(=O)CN2C(=O)NC3(CCCCCC3)C2=O)cc1Cl | inactive: -39.2% |
| CCOC(=O)c1cc(CC)sc1NC(=O)COC(=O)c1cc[n+]([O-])cc1 | inactive: 16.6% |
| Cc1ccc(S(=O)(=O)CCC(=O)Nc2sccc2C(N)=O)cc1 | inactive: 9.39% |
| CCNC(=S)NNC(=O)c1ccc(S(=O)(=O)NCc2ccco2)cc1 | inactive: 0.0624% |
| c1cc(Nc2cccc3nccnc23)c2nccnc2c1 | inactive: 23.5% |
| CC1CCCC(C)N1C(=O)COC(=O)c1ccccc1O (centres undefined) | inactive: 6.57% |
| Cc1ccc(/C=C/C(=O)O)cc1S(=O)(=O)N(C)CCO | inactive: -2.42% |

| Compound | growth rescue (activation) |
| --- | --- |
| Nn1c(Cc2cccc3ccccc23)nnc1SCc1ccc(Cl)c(Cl)c1 | inactive: -2.54% |
| CN1CCN(c2nc3ccccn3c(=O)c2/C=C(\C#N)S(=O)(=O)c2ccccc2)CC1 | inactive: -3.81% |
| COc1cc(C(=O)NCc2ccc(-c3nc4ccccc4s3)cc2)cc(OC)c1OC | inactive: -2.27% |
| CCOC(=O)N1CCN(c2nc3c(C)cccn3c(=O)c2C=O)CC1 | inactive: 14.3% |
| COc1cc(NC(=O)Cc2c(C(=O)O)n(C)c3ccccc23)cc(OC)c1OC | inactive: 8.99% |
| CC[C@H](C)[C@H](NC(N)=O)C(=O)Nc1ccc(NC(C)=O)cc1 | inactive: 15.3% |
| COc1ccccc1NC(=O)COC(=O)c1ccc(S(=O)(=O)N2CCCCCC2)cc1 | inactive: 4.15% |
| O=C1/C(=C/c2cccc(O)c2)SC(=S)N1CC1CCCO1 (centres undefined) | inactive: -3.16% |
| CNC(=O)c1oc(-c2ccc(Cl)cc2)nc1C | inactive: 22.6% |
| CCc1nc2ccc(C(=O)N(CC)CCN(C)C)cn2c1N(C)Cc1cccs1 | inactive: 0.89% |
| CCc1cccc(N(CC(=O)NC2CCCCC2)C(=O)c2csnn2)c1 | inactive: -8.91% |
| COc1ccc(-n2nc(C(=O)NCC(=O)NCCCN3CCC(C)CC3)c3ccccc3c2=O)cc1Cl | inactive: 4.87% |
| O=C(COC(=O)C1CCCCC1)Nc1ccc(N2CCCCC2)cc1 | inactive: -21.2% |
| CCCCN(C)Cc1c(C)[nH]c2ccccc2c1=O | inactive: -11.7% |
| CC(/C=N\NC(=O)c1cc(C)oc1C)=C\c1ccccc1 | inactive: 1.05% |
| CN(C)S(=O)(=O)c1cccc(NC(=O)COC(=O)CCC(=O)c2ccc(F)cc2)c1 | inactive: 3.48% |
| COc1cc(NC(=S)NCc2cccnc2)c(OC)cc1Cl | inactive: 4.12% |
| COc1cccc(N2CCN(C(=O)c3nc4nc(C)cc(C)n4n3)CC2)c1 | inactive: 0.791% |
| O=C(NCc1ccco1)C(c1ccncc1)N(C(=O)Cn1nnc2ccccc21)c1ccccc1 (centres undefined) | inactive: 12.5% |
| CCOC(=O)c1sc2nc(SCC(=O)NCc3ccco3)n(Cc3ccccc3)c(=O)c2c1C | inactive: 1.4% |
| COc1ccccc1C(O)c1ncc(-c2cccc3ccccc23)[nH]1 (centres undefined) | inactive: 0.924% |
| COc1ccc(NCC(=O)NN=C2CCS(=O)(=O)c3ccc(F)cc32)cc1 | inactive: -15.2% |
| COc1ccc(C(=O)Nc2cc(C)on2)cc1[N+](=O)[O-] | inactive: 25.2% |

— PubChem BioAssay AID1347073 (National Center for Advancing Translational Sciences (NCATS), 2019)
